{"source": "ChEMBL document CHEMBL4888484", "about": "“Replenishing the malaria drug discovery pipeline: Screening and hit evaluation of the MMV Hit Generation Library 1 (HGL1) against asexual blood stage Plasmodium falciparum ,using a nano luciferase reporter read-out” (2022)", "note": "Hit rate of the full screen: of about 150,000 compounds, about 540 (0.36%) showed an effect of 50% or more. Some of the results follow."}
{"system": "Plasmodium falciparum", "experiment": "Primary screen in NF54 nanoGlo assay, in single point, at 2uM, 72h; a lower Z score goes with more inhibition", "format": "functional, Erythrocyte", "settings": "timepoint 72 hour", "units": {"% Inhibition": "%"}}
{"smiles": "CCCC(NC(=O)N1CCC(F)(CO)C1)C1CCCCC1", "note": "(stereo not drawn)", "% Inhibition": 4, "Z score": -0.38}
{"smiles": "CCOc1cccc(C(C)NC(C)C(=O)NC(=O)NC)c1", "note": "(stereo not drawn)", "% Inhibition": -1, "Z score": 0.11}
{"smiles": "COC(=O)N(C)CC(=O)NCc1ccccn1", "% Inhibition": -17, "Z score": 3.15}
{"smiles": "CCn1cc(CNC(=O)N2CC[C@H](CO)C2)cn1", "% Inhibition": 0, "Z score": 0.01}
{"smiles": "COc1ccc(CN2C[C@@H](F)[C@@H](OCc3nc4ncccc4[nH]3)C2)cc1", "% Inhibition": 30, "Z score": -3.38}
{"smiles": "Cc1nc(O)cc(CNC(=O)[C@H](C)n2cc(Cl)cn2)n1", "% Inhibition": 0, "Z score": 0.04}
{"smiles": "C[C@H]1Cc2cc(S(=O)(=O)N(C)C)cc(Cl)c2O1", "% Inhibition": -4, "Z score": 0.76}
{"smiles": "CCN(CCN(C)C)c1cc([C@H]2CCOC2)nc(N2CC(O)C2)n1", "% Inhibition": 7, "Z score": -0.91}
{"smiles": "O=C(Cn1nc2n(c1=O)C(=O)N(c1ccccc1)C2)NCc1ccccn1", "% Inhibition": -3, "Z score": 0.51}
{"smiles": "Cc1nnsc1CN(C)C(=O)C1=NNC(=O)CC1", "% Inhibition": -8, "Z score": 1.16}
{"smiles": "Cc1cc(CCC(=O)N2CCNC(=O)C[C@H]2c2ccccc2)no1", "% Inhibition": -11, "Z score": 1.68}
{"smiles": "COc1ccc(C)cc1NC(=O)Cn1c(N2CCCCC2)nc(C)cc1=O", "% Inhibition": -12, "Z score": 1.24}
{"smiles": "O=C(NCCOc1ccccc1)c1ccc(S(=O)(=O)N2CCOCC2)cc1", "% Inhibition": -15, "Z score": 1.69}
{"smiles": "COC1CCN(C2CN(C(=O)CNC(=O)OCc3ccccc3)C2)CC1", "% Inhibition": -11, "Z score": 1.56}
{"smiles": "CC(C)C(=O)N1CCC([C@@H]2CN(C(=O)c3ccccc3)C[C@H]2CO)CC1", "% Inhibition": -18, "Z score": 2.09}
{"smiles": "CN(C[C@@H]1CCCN2CCCC[C@H]12)C(=O)Cc1c[nH]c2ccccc12", "% Inhibition": -1, "Z score": 0.06}
{"smiles": "CC(=O)Nc1cc(Cl)c(Cl)cc1F", "% Inhibition": -12, "Z score": 1.87}
{"smiles": "O=C(NCCCN1CCCC1=O)C(=O)NCc1ccc(F)cc1", "% Inhibition": -10, "Z score": 1.48}
{"smiles": "Cc1ccccc1[C@H]1CN(C(=O)CCc2c(C)nn(C)c2C)C[C@@H]1C(=O)O", "% Inhibition": -21, "Z score": 2.21}
{"smiles": "Cc1cccc(NC(=O)CC(=O)NCCN2CCC[C@H](CO)C2)c1", "% Inhibition": 18, "Z score": -2.33}
{"smiles": "CC(C)Cn1nc2n(c1=O)[C@H](C(=O)NCCc1ccncc1)CCCC2", "% Inhibition": -2, "Z score": 0.22}
{"smiles": "CN(CCc1ccccc1)[C@H]1CCCN(Cc2ccc(C#CC(C)(C)O)s2)C1", "% Inhibition": -6, "Z score": 0.75}
{"smiles": "CCC1(CNS(=O)(=O)c2c(C(F)F)c(C)nn2C)CC1", "% Inhibition": 2, "Z score": -0.3}
{"smiles": "O=C1CCN(CC(=O)N[C@H](c2ccccc2)C2CCCCC2)CCN1", "% Inhibition": -9, "Z score": 0.95}
{"smiles": "O=C(c1cc(=O)[nH]c2ccccc12)N1CCC(c2nccn2CC2CCC2)CC1", "% Inhibition": 3, "Z score": -0.49}
{"smiles": "CN(c1nccc(C(F)(F)F)n1)[C@H]1CCCN(C(=O)CCn2ccnc2)C1", "% Inhibition": 5, "Z score": -0.79}
{"smiles": "CC(C)c1ccc([C@H](C)NC(=O)N2CCc3n[nH]cc3C2)cc1", "% Inhibition": -10, "Z score": 1.3}
{"smiles": "Cc1ccsc1[C@H]1CCN(Cc2ccccc2Cn2cccn2)C[C@@H]1O", "% Inhibition": 0, "Z score": -0.03}
{"smiles": "Cc1cc(C)nc([C@@H](C#N)C(=O)Nc2ccccc2)n1", "% Inhibition": 3, "Z score": -0.29}
{"smiles": "CC(=O)N[C@@H]1C[C@H](Cc2ccccc2)O[C@H](/C=C/c2ccccc2)C1", "% Inhibition": -2, "Z score": 0.27}
{"smiles": "Cc1ccccc1OCCc1ncnn1C(C)(C)C", "% Inhibition": -7, "Z score": 0.74}
{"smiles": "CCOC(=O)n1ccc(C(=O)Nc2cc(C)ccn2)n1", "% Inhibition": -1, "Z score": 0.17}
{"smiles": "COCC[C@H]1CCCCN1C(=O)Nc1ccc(-n2ccnc2)c(Cl)c1", "% Inhibition": -1, "Z score": 0.15}
{"smiles": "CC1(C)CN(C(=O)c2ccc(C#N)s2)CCN1", "% Inhibition": -10, "Z score": 1.28}
{"smiles": "COc1cc(F)c(CN(Cc2cnn(C)c2)C2CC2)cc1OC", "% Inhibition": 0, "Z score": 0.05}
{"smiles": "O=C(Cn1c(=O)n(C2CC2)c(=O)c2snc(-c3ccccn3)c21)NCc1ccccc1", "% Inhibition": 36, "Z score": -4.61}
{"smiles": "Cc1cccc(C)c1Oc1ncccc1CNC(=O)[C@H]1CCNC1", "% Inhibition": 2, "Z score": -0.34}
{"smiles": "O=C(Nc1cccc2cccnc12)c1ccc2c(c1)OCCO2", "% Inhibition": 1, "Z score": -0.14}
{"smiles": "COc1nc2c(cc1CNC(=O)[C@@H]1CCCCO1)C(=O)N(C1CCCC1)C2", "% Inhibition": -8, "Z score": 1.17}
{"smiles": "CC(C)c1noc([C@H]2CCCN(C(=O)c3[nH]nc4c3CCC4)C2)n1", "% Inhibition": 4, "Z score": -0.62}
{"smiles": "CCCN1C(=O)N[C@@H](CC(=O)N2CCC(OCC)CC2)C1=O", "% Inhibition": -1, "Z score": 0.18}
{"smiles": "Nc1ncccc1CNC(=O)COC[C@H]1CCCO1", "% Inhibition": -13, "Z score": 2.16}
{"smiles": "CCNc1ccc(S(N)(=O)=O)cc1C(F)(F)F", "% Inhibition": -16, "Z score": 1.37}
{"smiles": "CCN1CCN(c2nc(O)c3c(n2)NC(=O)C[C@H]3c2ccc(O)c(OC)c2)CC1", "% Inhibition": -13, "Z score": 1.92}
{"smiles": "CC1CN(Cc2cn(C(C)(C)C)nn2)CCC1O", "note": "(stereo not drawn)", "% Inhibition": 2, "Z score": -0.25}
{"smiles": "Cc1nsc(NC[C@H](O)COc2cccc(C(F)(F)F)c2)n1", "% Inhibition": -2, "Z score": 0.19}
{"smiles": "COc1cccc2nc(C[C@H]3CN(S(=O)(=O)c4ccccc4)CC[C@H]3CC(=O)O)[nH]c12", "% Inhibition": -10, "Z score": 1.62}
{"smiles": "Cn1c2c(c(C#N)c1NC(=O)CN1CCCCCC1)CCCC2", "% Inhibition": -12, "Z score": 1.47}
{"smiles": "C[C@H](NC(=O)Nc1ccc(-n2cnnn2)cc1)c1cnn(C)c1", "% Inhibition": -12, "Z score": 1.35}
{"smiles": "Nc1cccc(C(=O)N2CCCC[C@@H]2CCc2ccccc2)n1", "% Inhibition": -5, "Z score": 0.73}
{"smiles": "COc1ccc(-c2csc3ncnc(NC[C@](C)(O)c4cnn(C)c4)c23)cc1", "% Inhibition": -15, "Z score": 1.72}
{"smiles": "COc1nccnc1N1CCC2(CC1)CC(=O)N(C/C=C/c1ccccc1)C2", "% Inhibition": -12, "Z score": 1.25}
{"smiles": "Cc1c(CN2CCN(C)C3(CCN(C)CC3)C2)[nH]c2ccc(F)cc12", "% Inhibition": 13, "Z score": -2.47}
{"smiles": "CN(Cc1ccccc1)C(=O)CN(c1ccc(OCc2ccccc2)cc1)S(C)(=O)=O", "% Inhibition": -35, "Z score": 4.09}
{"smiles": "CCc1nnc(CN(C)Cc2cc(CN3CCN(C)CC3)c(C)cc2C)o1", "% Inhibition": -10, "Z score": 1.74}
{"smiles": "O=C1CN(CCCNC(=O)c2cccc(-c3ccc4occc4c3)c2)CCN1", "% Inhibition": -9, "Z score": 1.27}
{"smiles": "CCc1cc(C(=O)N2CCC(C)CC2)c2c(C3CC3)nn(-c3ccc(F)cc3)c2n1", "% Inhibition": 34, "Z score": -4.51}
{"smiles": "O=c1nc(CNc2ccccc2)[nH]n1Cc1nnnn1-c1ccccc1", "% Inhibition": 7, "Z score": -0.84}
{"smiles": "O=C(NCCc1cccs1)c1nnn2c1CO[C@H](c1ccccc1)C2", "% Inhibition": 6, "Z score": -1.18}
{"smiles": "CCN(CC)S(=O)(=O)NCc1ccco1", "% Inhibition": -10, "Z score": 1.24}
{"smiles": "CC[C@@H](CO)Nc1ncc2cc3ccccc3nc2c1C#N", "% Inhibition": 36, "Z score": -4.67}
{"smiles": "Cc1ccc(C(=O)N2CCC[C@@H]2COc2ccc(C(=O)N3CCOCC3)cc2)c(C)c1", "% Inhibition": -3, "Z score": 0.56}
{"smiles": "Cc1cc(=O)c(C(=O)N2CCN(C/C=C/c3ccccc3)CC2)c(Cc2ccccc2F)n1C", "% Inhibition": 1, "Z score": -0.13}
{"smiles": "CS(=O)(=O)N1CCN(CCNC(=O)c2ccc(Br)o2)CC1", "% Inhibition": -5, "Z score": 0.91}
{"smiles": "O=C(CNC(=O)c1ccc(=O)[nH]c1)NCC1CCCCC1", "% Inhibition": -23, "Z score": 3.32}
{"smiles": "Cc1nc(C(=O)N2CCC[C@@]3(CCC(=O)N(Cc4ccncc4)C3)C2)cs1", "% Inhibition": -1, "Z score": 0.14}
{"smiles": "COc1ccc(C(=O)N[C@H]2CCN(c3cc(-c4ccc(Cl)cc4)n[nH]3)C2)c(C)c1", "% Inhibition": -20, "Z score": 2}
{"smiles": "O=C(c1cc(C(=O)N2CCC(=O)N3CCC[C@@H]32)c[nH]1)N1CCCC1", "% Inhibition": 7, "Z score": -0.85}
{"smiles": "C[C@H](O)c1cccc(N(C)Cc2cnn(-c3ccccc3)c2)n1", "% Inhibition": -13, "Z score": 1.64}
{"smiles": "O=C(c1ccc2nonc2c1)N1CCN(c2ccc3[nH]ncc3c2)C(=O)C1", "% Inhibition": -4, "Z score": 0.37}
{"smiles": "CC(C)CC(=O)NCc1nccc(N(C)C)n1", "% Inhibition": -3, "Z score": 0.49}
{"smiles": "Cc1cc(C)nc(Nc2nc(C(=O)NCCc3c[nH]c4ccccc34)cs2)n1", "% Inhibition": -16, "Z score": 2.99}
{"smiles": "Cc1ccc(-c2nc(CN(Cc3ccccc3)CC3CC3)c(C)o2)o1", "% Inhibition": -13, "Z score": 1.87}
{"smiles": "Cc1ccc(N2C(=O)N(CC(=O)OC(C)(C)C)S(=O)(=O)c3cccnc32)cc1F", "% Inhibition": -7, "Z score": 1.12}
{"smiles": "O=C(c1ccc(-n2cnnn2)cc1)N1CCOCC1", "% Inhibition": -2, "Z score": 0.35}
{"smiles": "O=C(Nc1ccc2c(c1)OCO2)c1ccc2ncsc2c1", "% Inhibition": -2, "Z score": 0.13}
{"smiles": "CC[C@@H](c1cccnc1)N(C)C(=O)c1ccc(-c2nc(C)c(C)cc2C#N)cc1", "% Inhibition": -8, "Z score": 1.39}
{"smiles": "CC(C)CN(Cc1cc(-c2cccs2)on1)C(=O)C(C)C", "% Inhibition": -10, "Z score": 1.34}
{"smiles": "NCc1ccc(COCc2ccccc2)cc1", "% Inhibition": -6, "Z score": 0.87}
{"smiles": "CC(=O)N1CCOC[C@H]1C(=O)N1CCC(c2nc3cc(Cl)ccc3s2)CC1", "% Inhibition": -13, "Z score": 1.61}
{"smiles": "O=C(Nc1ccc(NCc2ccccc2)c(Cl)c1)[C@H]1CCS(=O)(=O)C1", "% Inhibition": -3, "Z score": 0.32}
{"smiles": "CC(=O)N[C@H]1C[C@@H](CCc2ccccc2)O[C@@H](CC(C)C)C1", "% Inhibition": -9, "Z score": 1.01}
{"smiles": "O=S(=O)(NCCCN1CCN(CCCNS(=O)(=O)c2ccc(Cl)cc2)CC1)c1ccc(Cl)cc1", "% Inhibition": 31, "Z score": -3.53}
{"smiles": "COCC[C@]1(NC(=O)c2ccc(F)cc2)CCN(C(=O)c2ccncc2)C1", "% Inhibition": 1, "Z score": -0.17}
